{"source": "the supplement of paper PMC10126150", "note": "Sequences with one replicate were seen in a single cluster, so their values are uncertain.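 Further: ATP exposure 15 min at 22 °C before imaging.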"}
{"tested_on": "ATP", "test": "switch fluorescence ratio, 500 uM ATP over buffer (Cy3 cluster intensity, sum of 5 cycles each) (fold (ratio)); higher = stronger signal-on switching upon ATP binding; sequences stand for … in TCGTCGGCAGCGTCAGATGTGTATAAGAGACAGTTTTTTTTTTTTTTTTTTTTTTTTT…TC", "conditions": "aptamer strand: ATP DNA aptamer (quencher-CACCTGGGGGAGTATTGCGGAGGAAGG + anchor), 100 nM annealed; ATP concentration: 500 uM; one replicate", "outline": "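Cy3-labelled switching-strand clusters on a modified Illumina MiSeq flow-cell were annealed to 100 nM quencher-labelled ATP aptamer, imaged in selection buffer, then imaged after 15 min with 500 uM ATP at 22 °C. Five buffer/ATP cycles ran, with NaOH stripping and re-annealing between them. The fluorescence ratio is summed target-cycle over summed buffer-cycle Cy3 intensity per cluster, averaged per switch-domain sequence. Clusters outside 100-1000 RFU were excluded.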"}
{"sequence": "GCCATATAG", "switch fluorescence ratio": 1.03}
{"sequence": "GCCATCATAT", "switch fluorescence ratio": 0.954}
{"sequence": "GCCATGCGGC", "switch fluorescence ratio": 0.991}
{"sequence": "GCCATTATAC", "switch fluorescence ratio": 1.49}
{"sequence": "GCCATTGCAA", "switch fluorescence ratio": 0.984}
{"sequence": "GCCCACTTCC", "switch fluorescence ratio": 1.73}
{"sequence": "GCCCAGAACA", "switch fluorescence ratio": 0.993}
{"sequence": "GCCCCACCCA", "switch fluorescence ratio": 1.04}
{"sequence": "GCCCCCAGCC", "switch fluorescence ratio": 1.28}
{"sequence": "GCCCCCGACT", "switch fluorescence ratio": 1.03}
{"sequence": "GCCCCGTAAT", "switch fluorescence ratio": 1.85}
{"sequence": "GCCCCTGGCT", "switch fluorescence ratio": 1.04}
{"sequence": "GCCCGAAAGT", "switch fluorescence ratio": 1.03}
{"sequence": "GCCCGAATGT", "switch fluorescence ratio": 0.993}
{"sequence": "GCCCGACTGC", "switch fluorescence ratio": 1.04}
{"sequence": "GCCCGGTGAC", "switch fluorescence ratio": 1.54}
{"sequence": "GCCCTATGGA", "switch fluorescence ratio": 1.03}
{"sequence": "GCCCTCGGCA", "switch fluorescence ratio": 0.981}
{"sequence": "GCCCTGACAA", "switch fluorescence ratio": 1.03}
{"sequence": "GCCCTTTTAG", "switch fluorescence ratio": 0.984}
{"sequence": "GCCGAACCGG", "switch fluorescence ratio": 1.04}
{"sequence": "GCCGAAGGCA", "switch fluorescence ratio": 1}
{"sequence": "GCCGACACGC", "switch fluorescence ratio": 1.07}
{"sequence": "GCCGACTAGG", "switch fluorescence ratio": 1.03}
{"sequence": "GCCGAGTATC", "switch fluorescence ratio": 1.03}
{"sequence": "GCCGAGTGTG", "switch fluorescence ratio": 1}
{"sequence": "GCCGATGCGT", "switch fluorescence ratio": 1.1}
{"sequence": "GCCGATTCGT", "switch fluorescence ratio": 1.01}
{"sequence": "GCCGCAAGTT", "switch fluorescence ratio": 2.78}
{"sequence": "GCCGCACCAT", "switch fluorescence ratio": 1.11}
{"sequence": "GCCGCACGCT", "switch fluorescence ratio": 1.08}
{"sequence": "GCCGCACGGC", "switch fluorescence ratio": 1.05}
{"sequence": "GCCGCCGGTC", "switch fluorescence ratio": 1.03}
{"sequence": "GCCGCCGGTG", "switch fluorescence ratio": 1.1}
{"sequence": "GCCGCTGGTA", "switch fluorescence ratio": 0.96}
{"sequence": "GCCGGAAGAT", "switch fluorescence ratio": 1.02}
{"sequence": "GCCGGAGGAC", "switch fluorescence ratio": 1.1}
{"sequence": "GCCGGCTAAA", "switch fluorescence ratio": 1.01}
{"sequence": "GCCGGGTGAC", "switch fluorescence ratio": 1.1}
{"sequence": "GCCGGGTGCA", "switch fluorescence ratio": 0.999}
{"sequence": "GCCGGTGCAT", "switch fluorescence ratio": 0.963}
{"sequence": "GCCGGTGGCT", "switch fluorescence ratio": 0.983}
{"sequence": "GCCGTAAACT", "switch fluorescence ratio": 1.03}
{"sequence": "GCCGTAGGCA", "switch fluorescence ratio": 0.984}
{"sequence": "GCCGTATCAG", "switch fluorescence ratio": 0.98}
{"sequence": "GCCGTATTTC", "switch fluorescence ratio": 1.02}
{"sequence": "GCCGTCAGCT", "switch fluorescence ratio": 0.982}
{"sequence": "GCCGTCTATC", "switch fluorescence ratio": 0.989}
{"sequence": "GCCGTCTATG", "switch fluorescence ratio": 0.998}
{"sequence": "GCCGTGTGTA", "switch fluorescence ratio": 0.971}
{"sequence": "GCCGTTAGTG", "switch fluorescence ratio": 1.01}
{"sequence": "GCCGTTTTTG", "switch fluorescence ratio": 1.03}
{"sequence": "GCCTAATTGC", "switch fluorescence ratio": 1.07}
{"sequence": "GCCTACATTT", "switch fluorescence ratio": 1}
{"sequence": "GCCTACCCTA", "switch fluorescence ratio": 1.1}
{"sequence": "GCCTACCTGT", "switch fluorescence ratio": 1.05}
{"sequence": "GCCTAGAGGC", "switch fluorescence ratio": 1}
{"sequence": "GCCTAGCGCT", "switch fluorescence ratio": 1.29}
{"sequence": "GCCTATTCCG", "switch fluorescence ratio": 1.01}
{"sequence": "GCCTCAAGTG", "switch fluorescence ratio": 1.03}
{"sequence": "GCCTCGACGA", "switch fluorescence ratio": 1.05}
{"sequence": "GCCTCGAGAT", "switch fluorescence ratio": 1.17}
{"sequence": "GCCTCGGGTC", "switch fluorescence ratio": 0.988}
{"sequence": "GCCTCGGTTC", "switch fluorescence ratio": 1.04}
{"sequence": "GCCTCGTTCG", "switch fluorescence ratio": 1.01}
{"sequence": "GCCTCTTGTA", "switch fluorescence ratio": 1.02}
{"sequence": "GCCTGATAAC", "switch fluorescence ratio": 1.01}
{"sequence": "GCCTGATACT", "switch fluorescence ratio": 1.04}
{"sequence": "GCCTGATTCC", "switch fluorescence ratio": 1.11}
{"sequence": "GCCTGCAGAA", "switch fluorescence ratio": 1.01}
{"sequence": "GCCTGGCAAG", "switch fluorescence ratio": 0.981}
{"sequence": "GCCTGGTCTA", "switch fluorescence ratio": 0.982}
{"sequence": "GCCTGGTGAC", "switch fluorescence ratio": 1.24}
{"sequence": "GCCTGTCGCA", "switch fluorescence ratio": 1.05}
{"sequence": "GCCTTAGTAA", "switch fluorescence ratio": 1.03}
{"sequence": "GCCTTCACG", "switch fluorescence ratio": 1.14}
{"sequence": "GCCTTGCTTC", "switch fluorescence ratio": 0.962}
{"sequence": "GCGAAAGGGC", "switch fluorescence ratio": 1.03}
{"sequence": "GCGAAATATA", "switch fluorescence ratio": 1}
{"sequence": "GCGAAGCATC", "switch fluorescence ratio": 1.04}
{"sequence": "GCGAAGCGGC", "switch fluorescence ratio": 1.01}
{"sequence": "GCGAATTGCT", "switch fluorescence ratio": 1.01}
{"sequence": "GCGACATTTA", "switch fluorescence ratio": 1.04}
{"sequence": "GCGACGGCAA", "switch fluorescence ratio": 2.46}
{"sequence": "GCGACGGGTC", "switch fluorescence ratio": 1.07}
{"sequence": "GCGACGTCAC", "switch fluorescence ratio": 2.13}
{"sequence": "GCGACTAAGC", "switch fluorescence ratio": 0.983}
{"sequence": "GCGACTGCGC", "switch fluorescence ratio": 1.09}
{"sequence": "GCGAGAAAGG", "switch fluorescence ratio": 0.965}
{"sequence": "GCGAGATTAG", "switch fluorescence ratio": 0.995}
{"sequence": "GCGAGCCTCT", "switch fluorescence ratio": 0.993}
{"sequence": "GCGAGCCTTT", "switch fluorescence ratio": 0.959}
{"sequence": "GCGAGCGCTA", "switch fluorescence ratio": 1.1}
{"sequence": "GCGAGGGCGG", "switch fluorescence ratio": 0.971}
{"sequence": "GCGAGGTATA", "switch fluorescence ratio": 1.01}
{"sequence": "GCGAGTAAAG", "switch fluorescence ratio": 0.985}
{"sequence": "GCGATAGGGT", "switch fluorescence ratio": 1.01}
{"sequence": "GCGATATCAT", "switch fluorescence ratio": 0.951}
{"sequence": "GCGATATCGT", "switch fluorescence ratio": 1.03}
{"sequence": "GCGATCGCAT", "switch fluorescence ratio": 0.999}
